42 compounds from publication PMC4336329 (PLoS ONE, 2015) can be followed below.

Screen size: about 310,000 compounds; about 2,200 (0.71%) showed an effect of 50% or more. The effect is printed as a negative number. The list shows a part of the results.

The target of this experiment is human ether-à-go-go-related gene (hERG) potassium channel (human, UniProt Q12809). Nature of the experiment: primary screen, population patch clamp on CHO cells stably expressing hERG.
human ether-à-go-go-related gene (hERG) potassium channel, sequence (Q12809 whole entry, looked up): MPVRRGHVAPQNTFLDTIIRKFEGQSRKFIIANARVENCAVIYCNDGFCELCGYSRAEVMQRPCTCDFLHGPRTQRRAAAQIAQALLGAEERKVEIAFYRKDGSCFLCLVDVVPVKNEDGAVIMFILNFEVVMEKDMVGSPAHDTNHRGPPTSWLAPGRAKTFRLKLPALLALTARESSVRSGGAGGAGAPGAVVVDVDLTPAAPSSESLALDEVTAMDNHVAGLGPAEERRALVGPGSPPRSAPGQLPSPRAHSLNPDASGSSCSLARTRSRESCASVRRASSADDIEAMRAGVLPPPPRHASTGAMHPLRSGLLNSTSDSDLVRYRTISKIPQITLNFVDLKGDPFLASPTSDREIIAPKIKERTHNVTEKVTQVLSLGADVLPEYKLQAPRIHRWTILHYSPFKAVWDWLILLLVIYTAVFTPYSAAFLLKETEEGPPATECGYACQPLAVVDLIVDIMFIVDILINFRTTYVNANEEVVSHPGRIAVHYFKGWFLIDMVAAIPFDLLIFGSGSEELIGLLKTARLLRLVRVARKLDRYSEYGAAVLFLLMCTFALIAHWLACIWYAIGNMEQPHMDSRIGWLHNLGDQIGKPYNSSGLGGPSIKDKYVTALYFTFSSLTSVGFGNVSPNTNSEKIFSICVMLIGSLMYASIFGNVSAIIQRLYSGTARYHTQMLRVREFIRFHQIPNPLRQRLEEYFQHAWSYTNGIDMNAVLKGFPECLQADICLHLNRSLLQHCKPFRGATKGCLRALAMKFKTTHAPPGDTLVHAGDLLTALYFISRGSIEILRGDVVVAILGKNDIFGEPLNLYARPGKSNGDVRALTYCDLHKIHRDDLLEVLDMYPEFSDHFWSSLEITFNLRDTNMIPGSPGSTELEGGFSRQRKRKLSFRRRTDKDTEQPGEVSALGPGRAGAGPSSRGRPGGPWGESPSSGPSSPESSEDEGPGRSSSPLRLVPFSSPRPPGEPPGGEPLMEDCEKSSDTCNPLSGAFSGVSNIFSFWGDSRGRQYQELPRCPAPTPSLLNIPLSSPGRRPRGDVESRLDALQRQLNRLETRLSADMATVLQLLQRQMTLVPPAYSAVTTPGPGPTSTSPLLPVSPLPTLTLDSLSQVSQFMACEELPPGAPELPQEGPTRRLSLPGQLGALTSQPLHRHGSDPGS
For the compound `Cc1ccc(S(=O)(=O)Cc2ccc(C(=O)N3CCN(c4ccc(F)cc4)CC3)o2)cc1`, the “hERG current change (%, negative = inhibition) at 1uM” value is given as -18.6%.
Turning to `COc1ccc(/C=N/Nc2nc(=O)[nH]nc2C)cc1OC`, the “hERG current change (%, negative = inhibition) at 1uM” value stood at 2.61%.
In the case of `COc1ccc([N+](=O)[O-])cc1COc1ccc2c(-c3ccccc3)cc(=O)oc2c1` it was 25.6%; in that of `Cc1nc(NCCN2CCOCC2)c2oc3ccccc3c2n1.Cl`, -8.71%; in that of `COc1ccc(/C=N/NC(N)=S)cc1`, 3.33%.
As for `Cc1nnc(NC(=O)c2cc(S(=O)(=O)N3CCCCC3)ccc2Cl)s1`, the figure is 18.8%.
As for `Cc1cc(Br)ccc1NC(=S)N1CCOCC1`, the figure is 14.2%; as for `Cn1c(SCC(=O)Nc2ccc(F)cc2)nc2c(c1=O)SCC2`, 8.63%.
With `N#CCN1CCC(c2cc(-c3ccco3)n[nH]2)CC1`, the “hERG current change (%, negative = inhibition) at 1uM” value was found to be 7.46%.
As for `O=C(CCN1C(=O)/C(=C/c2ccc3c(c2)OCO3)SC1=S)Nc1cccc(C(=O)O)c1`, the figure is 11.2%; as for `CCOc1ccc(S(=O)(=O)Nc2cccc(C(=O)NCC(c3ccco3)N(C)C)c2)cc1` (stereo not drawn), 3.23%.
As for `Cc1ccc(S(=O)(=O)N(C)C)cc1NC(=O)c1ccccc1SCC(=O)N1CCCC1`, the figure is 17.7%.
In the case of `COc1ccc([N+](=O)[O-])cc1NCc1cccnc1` it was 0.59%; in that of `CC(NC(=O)c1ccccc1NS(=O)(=O)c1ccc(CCC(=O)O)cc1)c1ccccc1` (stereo not drawn), 11.2%.
As for `CN(C(=O)COC(=O)Cc1c[nH]c2ccccc12)c1c(N)n(Cc2ccccc2)c(=O)[nH]c1=O`, the “hERG current change (%, negative = inhibition) at 1uM” value is 1.49%.
In the case of `CC(C(=O)N1CCC(C(N)=O)CC1)N(c1ccc(Oc2ccccc2)cc1)S(C)(=O)=O` (stereo not drawn) it was 4.29%; in that of `Cc1cc(-c2nnc(SCC(=O)c3ccc(Cl)cc3)o2)no1`, 12.5%.
For `O=C(/C=C\c1ccc(-c2cccc([N+](=O)[O-])c2)o1)N1CCOCC1`, the “hERG current change (%, negative = inhibition) at 1uM” value was 8.02%.
In the case of `CC[C@H]1OC(=O)[C@H](C)[C@@H](O[C@H]2C[C@@](C)(OC)[C@@H](O)[C@H](C)O2)[C@H](C)[C@@H](O[C@@H]2O[C@H](C)C[C@H](N(C)C)[C@H]2O)[C@](C)(O)C[C@@H](C)[C@@H]2N[C@@H](COCCOC)O[C@H]([C@H]2C)[C@]1(C)O` it was 12.8%; in that of `CC1(C)CC(=O)C(C2(O)C(=O)N(Cc3ccccc3)c3ccccc32)CO1` (stereo not drawn), -11.7%.
As for `CCOc1ncccc1C(=O)OCc1ccc(Cl)cc1`, the figure is -4%.
In the case of `Cc1ccc(Nc2ccc(C(N)=O)cc2[N+](=O)[O-])cc1C` it was 12.6%.
Regarding `COc1ccccc1C(C)NC(=O)c1ccc(C)o1` (stereo not drawn), the “hERG current change (%, negative = inhibition) at 1uM” value is -5.39%.
Take `CCOC(=O)C1CCCN(/C=C2\SC(=S)N(CC)C2=O)C1` (stereo not drawn): the “hERG current change (%, negative = inhibition) at 1uM” value was 3.87%.
For the compound `C=CCN1C(=O)/C(=C/c2cc(C)n(-c3cccnc3)c2C)C(=O)NC1=S`, the “hERG current change (%, negative = inhibition) at 1uM” value came out at 10.3%.
In the case of `COCC(=O)N/N=C/c1c(C)[nH]n(-c2ccccc2)c1=O` it was 14.5%; in that of `CCOc1ccccc1-n1c(O)c(C=NCCCN(CC)CC)c(=O)[nH]c1=O`, -5.11%.
Take `Cn1c(=O)c2c(nc(SCC(=O)NCC3CCCO3)n2Cc2ccc(F)cc2)n(C)c1=O` (stereo not drawn): the “hERG current change (%, negative = inhibition) at 1uM” value is -4.73%.
Take `O=C(NCC(c1cccs1)N1CCOCC1)c1cc(=O)[nH]c2ccccc12` (stereo not drawn): the “hERG current change (%, negative = inhibition) at 1uM” value is on record as 10.2%.
On to `Cc1cc(=O)oc2cc(NC(=O)c3cccc(Br)c3)ccc12`, for which the “hERG current change (%, negative = inhibition) at 1uM” value came out at 11.9%.
For the compound `O/N=C/c1ccc2cccc(O)c2n1`, the “hERG current change (%, negative = inhibition) at 1uM” value is 1.72%.
Turning to `O=C1C=C(c2cccc(Br)c2)C[C@@H](c2ccc3c(c2)OCO3)C1`, the “hERG current change (%, negative = inhibition) at 1uM” value is reported as -0.0166%.
As for `CCc1nc(Nc2ccc(OC)cc2OC)c2oc3ccccc3c2n1.Cl`, the figure is 15.8%; as for `O=C(COC(=O)/C=C/c1ccc(Cl)cc1)NC1CCCC1`, 3.4%.
In the case of `CC1(C)CC(=O)C=C(c2ccc(F)cc2OCc2ccccc2)C1` it was 11.8%; in that of `COC(=O)CNC(c1ccccc1)c1cc(Br)ccc1NS(=O)(=O)c1ccccc1` (stereo not drawn), 2.04%; in that of `NS(=O)(=O)c1ccc(CCNC(=O)NC2(C(F)(F)F)Oc3ccccc3O2)cc1`, 12%.
In the case of `CCCCCCOC(=O)C(C#N)c1nc2ccccc2nc1N1CCCCC1` (stereo not drawn) it was 7.5%; in that of `COC(=O)c1cc(S(=O)(=O)NCC2CCN(Cc3ccc(F)cc3)CC2)cn1C`, 14.4%; in that of `Cc1nc(NC(=O)c2ccccc2[N+](=O)[O-])sc1C(=O)N(C)C`, 16.4%.
Regarding `Cc1noc(C)c1S(=O)(=O)N1CCN(c2ccc(Cl)cc2)CC1`, the “hERG current change (%, negative = inhibition) at 1uM” value is 4.66%.
In the case of `CCCNC(=O)c1ccccc1NC(=O)CN(c1ccccc1OCC)S(C)(=O)=O`, the “hERG current change (%, negative = inhibition) at 1uM” value was determined as 16.2%.
